The values below come from US12553037B2, “Engineered class 2, type V repressor systems” (Scribe Therapeutics Inc., priority 2021, dated 2026).

Data set [1] has as its system 5′UTR sequence of the C9orf72 locus in the GFP-TK reporter. The data set can be described thus: Ganciclovir survival of GFP-TK-c10 reporter cells, arrayed dXR transductions (Example 3). The following applies: dXR with ZNF10-KRAB and guide 174, 5 μg/mL ganciclovir for 5 days.
Data set [2] has the same test system. The data set can be described thus: Lentivirus competition experiments, spacer fitness by NGS (Example 3). The following applies: dXR (ZNF10-KRAB), scaffold 174, GFP-TK-c10 cells, 5 days 5 μg/mL ganciclovir. As to the method:
Specifically, TK metabolizes the typically inert pro-drug ganciclovir into a toxic thymidine analog that leads to cell death. The nucleofected cells were selected in hygromycin for 1 month, sorted to single cells and characterized for ganciclovir sensitivity.
Separately, cells were transduced (250,000 cells; 6-well format) with multiple virus combinations at defined ratios (Table 17). 48 hours post-transduction, half of the cells in each well were harvested and frozen as cell pellets, and the other half were selected in the same manner (5 days; 5 μg/mL ganciclovir). After ganciclovir selection the remaining cells were harvested and gDNA was extracted from both pre- and post-ganciclovir treatment samples. Primers flanking the region containing the spacer sequence in the lentivirus constructs were used to generate amplicons for next generation sequencing analysis in which the ratios of the spacers in each well were compared pre- and post-selection. These ratios were used to calculate spacer fitness scores for each competition by taking the log 2 of the fold change in the spacer frequency from pre-selection to post-selection. Fitness was determined by the following equation: […]

As for “NT: non-targeting spacer 0.0, CGAGACGUAAUUACGUCUCG (expressed or natural sequence)”, the “cell survival after ganciclovir treatment” value in data set [1] is listed as “resulted in cell death”. Moreover, the “Fitness (log2 fold change in frequency of spacer counts, pre- to post-selection)” value was −3.38 log2 fold change in data set [2] (Experiment 1: competition of spacers 29.2000 (1) and 0.0 (NT), equal ratio); −3.10 log2 fold change in data set [2] (Experiment 2: competition of spacers 29.168 (2) and 0.0 (NT), equal ratio); −0.38 log2 fold change in data set [2] (Experiment 3: competition of spacers 29.163 (3) and 0.0 (NT), equal ratio); −3.44 log2 fold change in data set [2] (Experiment 5 as printed in Table 18: spacers 1, 2, 3 and NT in competition).
